According to PubChem BioAssay AID1508642 (National Center for Advancing Translational Sciences (NCATS), 2021):
Out of some 43,000 compounds screened, about 200 (0.47%) were called active. Another 12% or so got no clear call; they are omitted. Calls follow the shape of the dose curve; as a rule, active = well fitted cell-killing curve with a large enough effect; inconclusive = small, poorly fitted or top-dose-only effect, or effect the other way; inactive = flat fitted curve, though single readings scatter. Some of the results follow.
% is scaled to controls: 0 for no effect and ±100 for the full control effect.

Test: Cell viability qHTS assay in S16 Pmp22-F2sN cells; also: nearly all actives have a fitted effect of over 65% in size
Conditions: S16 Pmp22-F2sN Schwann cells viability, CellTiter-Glo, 24 h; series mostly up to 57.5 µM; activity change, negative = cytotoxicity: at the top concentration
In short: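 S16 Pmp22-F2sN Schwann cells (500-1,000/well) in phenol-red-free DMEM with 10% FBS received 23 nL compound by pin tool for 24 h at 37 °C. Viability was then read as CellTiter-Glo luminescence after 15 min at room temperature.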
For CCCOc1ccc(CNC(=O)CCCn2nc(C)c3sc4ccccc4c3c2=O)cc1, the “activity change, negative = cytotoxicity” value was inactive: 5.25%. With Cc1ccc(CNC(=O)CCCCCn2c(=O)c3sccc3n(CC(=O)Nc3c(C)cc(C)cc3C)c2=O)cc1 the “activity change, negative = cytotoxicity” value was inactive: 6.65%. For COc1cc(Cl)c(C)cc1NC(=O)Cn1ncc2c1-c1cc(C)ccc1OC2, the “activity change, negative = cytotoxicity” value was inactive: 5.92%. For CCCSc1ncc(Cl)c(C(=O)Nc2c(C(=O)Nc3ccc(OC)cc3)oc3ccccc23)n1, the “activity change, negative = cytotoxicity” value was inactive: 0.558%. For COc1ccc(C(=O)Nc2nnc(SCc3cc(=O)n4cccc(C)c4n3)s2)cc1, the “activity change, negative = cytotoxicity” value was inactive: -3.59%. With CCc1ccc(C(=O)N2CCC(c3nc(-c4ccc(S(=O)(=O)N5CCCC5)cc4)no3)CC2)cc1 the “activity change, negative = cytotoxicity” value was inactive: -29.5%. For O=C(O)c1ccc(CNCc2ccccc2Cl)s1, the “activity change, negative = cytotoxicity” value was inactive: -0.208%. With Cn1nc(C(=O)NCc2ccccc2Cl)c2c1-c1ccccc1S(=O)(=O)C2 the “activity change, negative = cytotoxicity” value was inactive: -25.7%. For CSc1ccc(CNC(=O)C2CCN(c3nc4ccccc4nc3C(F)(F)F)CC2)cc1, the “activity change, negative = cytotoxicity” value was inactive: -2.73%. With COc1ccc(Cl)cc1NC(=O)C1CCN(S(=O)(=O)c2ccc3c(c2)CC(C)N3C(C)=O)CC1 (stereo unspecified) the “activity change, negative = cytotoxicity” value was inactive: -2.56%. In the case of CC1CCCN(Cc2nc3c(c(=O)n(C)c(=O)n3C)n2Cc2ccc(Cl)cc2)C1 (stereo unspecified), the “activity change, negative = cytotoxicity” value is reported as inactive: 4.25%. With O=C(Nc1cc(Cl)ccc1Cl)c1cc2nc(-c3ccc4c(c3)OCO4)cc(C(F)(F)F)n2n1 the “activity change, negative = cytotoxicity” value was inactive: 3.3%. In the case of COc1ccc(C(=O)NCc2ccc3c(c2)CCN3C(=O)c2ccc(C)cc2)cc1, the “activity change, negative = cytotoxicity” value is reported as inactive: 12.6%. In the case of COc1ccc(-c2c(C)nn3c(C(F)(F)F)cc(-c4ccccc4)nc23)cc1, the “activity change, negative = cytotoxicity” value is reported as inactive: 1.23%. In the case of COc1ccc(OC)c(NC(=O)c2cc(C3CC3)nc3c2c(C)nn3-c2ccc(C)cc2)c1, the “activity change, negative = cytotoxicity” value is reported as inactive: -17.8%. In the case of Cc1cc(C)cc(NC(=O)Cc2c(C(=O)O)c(C)cn2C)c1, the “activity change, negative = cytotoxicity” value is reported as inactive: 3.42%. With O=C(Cn1cc(SCc2ccccc2F)c2ccccc21)N1CCCCC1 the “activity change, negative = cytotoxicity” value was inactive: 14.5%. With O=C(NCc1ccco1)c1ccc2c(c1)N(Cc1c(F)cccc1Cl)C(=O)c1ccccc1S2 the “activity change, negative = cytotoxicity” value was inactive: -4.22%. In the case of CCc1cc2c(cc(C(=O)OC)n2Cc2nc(-c3ccc(C)cc3)oc2C)s1, the “activity change, negative = cytotoxicity” value is reported as inactive: -13.7%. In the case of O=C(CSc1nc2c([nH]c3ccccc32)c(=O)n1-c1cccc(C(F)(F)F)c1)N1CCc2ccccc21, the “activity change, negative = cytotoxicity” value is reported as inactive: 15.8%. For CC(=O)c1cccc(NC(=O)C2CCN(S(=O)(=O)c3ccc4[nH]c(=O)ccc4c3)CC2)c1, the “activity change, negative = cytotoxicity” value was inactive: 12.2%. For Cc1ccc(CNC(=O)C2CCN(Cc3nc(-c4cccc(Br)c4)oc3C)CC2)cc1, the “activity change, negative = cytotoxicity” value was inactive: 0.687%. In the case of CCOc1ccc(-n2c(=O)c3c4c(sc3n(CC(=O)NC(C)CC)c2=O)CCCC4)cc1 (stereo unspecified), the “activity change, negative = cytotoxicity” value is reported as inactive: 7.81%. In the case of Cc1cccc(-n2c(=O)c3ccccc3n(Cc3ccccc3)c2=O)c1, the “activity change, negative = cytotoxicity” value is reported as inactive: 22.1%. With Cc1ccc(-n2nc3ccc(NC(=O)COc4ccccc4)cc3n2)cc1Cl the “activity change, negative = cytotoxicity” value was inactive: -1.18%. For CCC(C(=O)NC1CCC(C)CC1)n1nc(C)c2sc3ccccc3c2c1=O (stereo unspecified), the “activity change, negative = cytotoxicity” value was inactive: 5.46%. With COc1ccccc1CNC(=O)C1CCN(S(=O)(=O)c2ccc3c(c2)CCCN3C(C)=O)CC1 the “activity change, negative = cytotoxicity” value was inactive: 2.46%. With CC(C)c1ccc(NC(=O)CSc2nc3ccccc3nc2Cc2ccccc2)cc1 the “activity change, negative = cytotoxicity” value was inactive: 2%. In the case of CC1CCn2c(nc3cc(C(=O)NCc4ccc(OC(C)C)cc4)ccc32)C1 (stereo unspecified), the “activity change, negative = cytotoxicity” value is reported as inactive: 0.734%. In the case of COc1cccc(N2CCN(C(=O)CCCCCn3c(=O)[nH]c4ccccc4c3=O)CC2)c1, the “activity change, negative = cytotoxicity” value is reported as inactive: 6.93%. In the case of CCOc1ccccc1NC(=O)Cn1nnc(C(=O)NCc2ccc(F)cc2)c1N, the “activity change, negative = cytotoxicity” value is reported as inactive: -0.126%. For CN(C)CCNC(=O)C(=O)NCC(c1cccnc1)N1CCN(c2ccc(F)cc2)CC1 (stereo unspecified), the “activity change, negative = cytotoxicity” value was inactive: 2.87%. With COc1ccc(Cn2ccc3nc(C)c(C(=O)N4CCN(c5ccc(OC)cc5)CC4)cc3c2=O)cc1 the “activity change, negative = cytotoxicity” value was inactive: 0.353%. In the case of Cc1ccc(S(=O)(=O)N(C)Cc2nc(-c3ccccc3)oc2C)cc1, the “activity change, negative = cytotoxicity” value is reported as inactive: -9.52%. With CCc1nc2nc(C)c(NS(=O)(=O)c3ccc(C)cc3)c(=O)n2[nH]1 the “activity change, negative = cytotoxicity” value was inactive: 0.672%. With Cc1ccc(S(=O)(=O)NCc2nc3cccnc3n2Cc2ccccc2Cl)c(C)c1 the “activity change, negative = cytotoxicity” value was inactive: -15.4%. With CCc1nnc2c(Nc3ccc(N(CC)CC)cc3C)nc3ccccc3n12 the “activity change, negative = cytotoxicity” value was inactive: -10.1%. In the case of Cc1cc(S(=O)(=O)Nc2ccc(C(=O)O)cc2)c(C)c(S(=O)(=O)c2ccc(Cl)cc2)c1, the “activity change, negative = cytotoxicity” value is reported as inactive: 12.3%. In the case of COc1cccc(NS(=O)(=O)c2ccc3c(c2)N(C)C(=O)CC(=O)N3C)c1, the “activity change, negative = cytotoxicity” value is reported as inactive: 4.51%. With COc1ccc(C)cc1NC(=O)c1cn(C)c(=O)c2cc(OC)c(OC)cc12 the “activity change, negative = cytotoxicity” value was inactive: -1.21%. With CCCc1nn2c(=O)cc(COC(=O)c3ccc(NC(=O)C4CCCCC4)cc3)nc2s1 the “activity change, negative = cytotoxicity” value was inactive: 17.3%. In the case of CC(C)Cc1nn2c(=O)cc(COC(=O)c3ccccc3NC(=O)C3CCCCC3)nc2s1, the “activity change, negative = cytotoxicity” value is reported as inactive: 0.536%. In the case of CC(=O)c1ccccc1OCC(O)Cn1c(CO)nc2ccccc21 (stereo unspecified), the “activity change, negative = cytotoxicity” value is reported as inactive: -0.232%. With O=C(Nc1ccc(Br)cc1F)N1CC=C(c2c[nH]c3ccccc23)CC1 the “activity change, negative = cytotoxicity” value was inactive: -10.1%. With COc1ccccc1NC(=O)CN1C(=O)c2ccccc2Sc2ccc(C(=O)N3CCCC3)cc21 the “activity change, negative = cytotoxicity” value was inactive: 1.51%. For CCc1ccccc1NC(=O)N1CC(C)Sc2ccccc21 (stereo unspecified), the “activity change, negative = cytotoxicity” value was inactive: -17%. For Cc1cccc(Cn2cc(C(=O)Nc3cc(F)ccc3F)ccc2=O)c1, the “activity change, negative = cytotoxicity” value was inactive: 2.31%. In the case of COc1ccc(CNC(=O)CN2C(=O)CCn3nc(-c4ccccc4)cc32)c(OC)c1, the “activity change, negative = cytotoxicity” value is reported as inactive: 10.1%. With COc1ccc(S(=O)(=O)Nc2cc3c(C(=O)OC(C)C)c(C)oc3c3ccccc23)cc1 the “activity change, negative = cytotoxicity” value was inactive: -20.8%. For Cc1cc(OCC(O)CN2CCN(c3cccc(Cl)c3)CC2)ccc1Cl (stereo unspecified), the “activity change, negative = cytotoxicity” value was inactive: 8.67%. For COc1ccc(C(=O)c2sc3nc(-c4ccc(F)cc4)ccc3c2N)cc1, the “activity change, negative = cytotoxicity” value was inactive: -7.5%. In the case of COc1ccc(-c2nc(Cn3c(SCc4cccc(C(F)(F)F)c4)nc4cccnc43)c(C)o2)cc1OC, the “activity change, negative = cytotoxicity” value is reported as inactive: 1.46%. With Cc1oc2ncn(C)c(=O)c2c1C(=O)NCc1ccc(Cl)cc1 the “activity change, negative = cytotoxicity” value was inactive: -21.6%. In the case of Cn1c(Nc2ccc(Cl)cc2)cc(=O)n(C)c1=O, the “activity change, negative = cytotoxicity” value is reported as inactive: 14.2%. With CC1=C(C(=O)Nc2ccc(C)cc2C)C(c2ccc(O)cc2)n2nc(SCC(=O)c3ccc(C)cc3)nc2N1 (stereo unspecified) the “activity change, negative = cytotoxicity” value was inactive: -8.15%. For COc1ccc(C(C)=O)cc1CSc1nc(NCCc2ccccc2)c2ccccc2n1, the “activity change, negative = cytotoxicity” value was inactive: -11.3%. For CCN(CC)CCCNC(=O)c1nn(C)c2c1CSc1ccccc1-2, the “activity change, negative = cytotoxicity” value was inactive: 2.76%. For Cc1ccc(-n2nc(C)c3c(C(=O)NCCc4ccccc4)cc(C)nc32)cc1, the “activity change, negative = cytotoxicity” value was inactive: 19.1%. With Cc1ccc(CNC(=O)c2ccc3c(c2)nc2n3CCOC2)cc1 the “activity change, negative = cytotoxicity” value was inactive: 0.404%. In the case of COc1ccc(Cl)cc1CNCCSc1nnnn1-c1ccccc1, the “activity change, negative = cytotoxicity” value is reported as inactive: 1.68%. For COc1ccc(C2NC(=O)N(C)C3=C2C(=O)N(c2cccc(C(=O)O)c2)C3)cc1 (stereo unspecified), the “activity change, negative = cytotoxicity” value was inactive: -0.905%.
